Measurements taken from the RNAGym collection of RNA variant scans (doi:10.7554/elife.90254).
Read counts are not given, so values of variants with three or more changes are uncertain.

B1: LINE1-mini (parent)
chain: GGCAGAGCUCAACACAGCGUGGCAAAGUGGCUGUGGCUAGACUGCC

Variants of: B1
Test: self-cleavage, relative activity (ratio to wild type); higher = more cleavage; in vitro, sequencing; the parent is a self-cleaving ribozyme

| Variant | self-cleavage |
| --- | --- |
| C8A U9A A12U G29U A39G U43C | 0.09 |
| C8A U9A G17U | 0.24 |
| C8A U9A G22C C31A C42U | 0.34 |
| C8A U9C A11C C18G C37G | 0.01 |
| C8A U9C A12U U20G U32A | 0.01 |
| C8A U9C C23A C45G | 0.03 |
| C8A U9G A12C G30C G36U | 0.01 |
| C8A U9G A39U A41G C45U | 0 |
| C8A U9G C15A U20G C31U C37U U43G C46U | 0.02 |
| C8A U9G G22C A24U G36U | 0.02 |
| C8A U20A A25G C37G | 0.03 |
| C8A U20A C31U U32A | 0.1 |
| C8A U20A U38G | 0.05 |
| C8A U20C C46U | 0.26 |
| C8A U20C G36U | 0.35 |
| C8A U20G C31G A39C | 0.02 |
| C8A U20G G21C A26G G27U G30A | 0.02 |
| C8A U20G G29U | 0.07 |
| C8A U28A G44U | 0.59 |
| C8A U28A U32C | 0.23 |
| C8A U28C G33A G36A | 0.04 |
| C8A U28C U34C G40U C42G | 0.02 |
| C8A U28G C37A | 0.01 |
| C8A U28G G40A | 0.14 |

| Variant | self-cleavage |
| --- | --- |
| C8A U32C G40A | 0.06 |
| C8A U34G A39C | 0.06 |
| C8A U34G U38G | 0.02 |
| C8A U43G G44A | 0.3 |
| C8G A11G A24U G30A A39G | 0.01 |
| C8G A11U A39C | 0.01 |
| C8G A11U C18A G22U G27A G35A | 0.01 |
| C8G A11U C31A U34A | 0.01 |
| C8G A12C G35C | 0.04 |
| C8G A12C U20A C23U G33U | 0.01 |
| C8G A12C U32A G35U | 0.02 |
| C8G A12G A24U A26G G30U | 0.08 |
| C8G A12G C13G G35C A41C | 0.02 |
| C8G A12G C13U | 0.03 |
| C8G A12G C37A | 0.08 |
| C8G A12G G22U G44U | 0.02 |
| C8G A12G G27A C37G | 0.02 |
| C8G A12G G29U U38G | 0.01 |
| C8G A14G A16C C18G | 0.02 |
| C8G A14G C23A G27U G40U | 0.07 |
| C8G A14G G36A A39U | 0.03 |
| C8G A14G U32A C42G | 0.02 |
| C8G A14G U34C | 0.06 |
| C8G A14U A16C | 0 |

| Variant | self-cleavage |
| --- | --- |
| C8G A14U A25U | 0.02 |
| C8G A14U A41C | 0.19 |
| C8G A14U C31A C42G | 0.03 |
| C8G A14U G17A C18G | 0.12 |
| C8G A14U G30C | 0.01 |
| C8G A16C G17U G35C | 0 |
| C8G A16C G35A G36C C42G | 0.01 |
| C8G A16C G40A | 0.02 |
| C8G A16G A39C | 0.16 |
| C8G A16G G17U G19U | 0.09 |
| C8G A16G G22C C31G | 0.02 |
| C8G A16G U32G G36U A41U | 0.02 |
| C8G A16U A24U A39G | 0.04 |
| C8G A24C C31G | 0.05 |
| C8G A24G C45G | 0.55 |
| C8G A25C G29A | 0.09 |
| C8G A25C U32G G36A U43C C46U | 0.04 |
| C8G A25G G27C | 0.01 |
| C8G A25U G27U | 0.06 |
| C8G A25U G40A | 0.1 |
| C8G A25U U34G C46A | 0.05 |
| C8G A26C G30U C31U | 0.03 |
| C8G A26C U38A C42U | 0.1 |
| C8G A26G C31U | 0.04 |

| Variant | self-cleavage |
| --- | --- |
| C8G A26U C45G | 0.07 |
| C8G A39G U43C G44C | 0.04 |
| C8G C10A A11U A16U U20C | 0 |
| C8G C10A A14C U32G C42A | 0 |
| C8G C10A A16C G17C A24U A26C | 0.01 |
| C8G C10A A41U | 0.02 |
| C8G C10A C13U U20C C46A | 0.01 |
| C8G C10A C15G G40U | 0.01 |
| C8G C10A C23A C42U | 0.01 |
| C8G C10A G17A A26G U34G A41U | 0.02 |
| C8G C10A G17U | 0.01 |
| C8G C10A G19C U43C | 0 |
| C8G C10A G22U | 0.02 |
| C8G C10A G27U U28A C45A | 0 |
| C8G C10U A11G A12G | 0.01 |
| C8G C10U A16C | 0.04 |
| C8G C10U A16G G30A | 0.04 |
| C8G C10U G21U G29U U43A | 0.04 |
| C8G C10U U28G G29A C37A | 0.19 |
| C8G C13A A16C U28A A39U C46G | 0.01 |
| C8G C13A A16U A25C A26U | 0.1 |
| C8G C13A A41C | 0.02 |
| C8G C13A C15A A25U G27A | 0.07 |
| C8G C13A C23A G36C C37G | 0.05 |

| Variant | self-cleavage |
| --- | --- |
| C8G C13A G17A | 0.04 |
| C8G C13A G21U A24C | 0.03 |
| C8G C13G A14C A26U | 0.01 |
| C8G C13G A14G A25U A26C | 0.07 |
| C8G C13G C15A U20C G29C U38A A39G | 0.01 |
| C8G C13G C31A G36A | 0.02 |
| C8G C13G U20G U28A G35A | 0.08 |
| C8G C13U A14C A41U | 0.1 |
| C8G C13U A26U G35C | 0.25 |
| C8G C13U C23A | 0.06 |
| C8G C13U G27A C31U G36A G40A | 0.02 |
| C8G C13U U32C G40U | 0.03 |
| C8G C13U U38A A39C C46A | 0.11 |
| C8G C15A A26G | 0.26 |
| C8G C15A C18A G33U C37A | 0.02 |
| C8G C15G C18U G22A G27A U43C | 0.01 |
| C8G C15G C42U | 0.01 |
| C8G C15G G22A A26C C46A | 0.02 |
| C8G C15G U28A | 0.02 |
| C8G C15G U43G | 0 |
| C8G C18A A25G C46A | 0.07 |
| C8G C18A A39C | 0.05 |
| C8G C18A G21C | 0.04 |
| C8G C18A G27A | 0.01 |

| Variant | self-cleavage |
| --- | --- |
| C8G C18G G30A | 0.11 |
| C8G C18U G19A U34C | 0.04 |
| C8G C18U G30A U32G G36U | 0.05 |
| C8G C23A G27A U34C | 0.08 |
| C8G C23G C46A | 0.02 |
| C8G C23G G30U U38G C45U | 0.06 |
| C8G C23U C31A | 0.06 |
| C8G C23U C31G U32C C42A | 0.14 |
| C8G C23U C31U G35U | 0.01 |
| C8G C23U G35U | 0.15 |
| C8G C23U G44A C45G | 0.02 |
| C8G C31A A39U | 0.01 |
| C8G C31A G33A G40U | 0.01 |
| C8G C31A U43C | 0.03 |
| C8G C37A G44A | 0.02 |
| C8G C42A U43A | 0.02 |
| C8G C45U C46G | 0.06 |
| C8G G17A C23U A26G G33U C37A C45U | 0.03 |
| C8G G17A C31G C37U | 0.06 |
| C8G G17A G40U | 0.66 |
| C8G G17A U28A G36U C45A | 0.03 |
| C8G G17C C18U C42A | 0.08 |
| C8G G17C C45A | 0.1 |
| C8G G17C U28G U38G | 0.05 |

| Variant | self-cleavage |
| --- | --- |
| C8G G17C U34G | 0.06 |
| C8G G17U C31U | 0.03 |
| C8G G17U G19C | 0.03 |
| C8G G17U G21U G30C C46U | 0.02 |
| C8G G17U G33A | 0.02 |
| C8G G19A A25C | 0.05 |
| C8G G19A C37A | 0.01 |
| C8G G19C C45U | 0.01 |
| C8G G19C G21A G40U | 0.02 |
| C8G G19C U38A A39C A41U | 0.02 |
| C8G G19U C31G G36U G44A C46G | 0 |
| C8G G19U G21U | 0.04 |
| C8G G19U G33U G44C | 0.04 |
| C8G G21A A25U G27C G35U C45U | 0.01 |
| C8G G21A C23U A24U | 0.1 |
| C8G G21C A41G | 0.14 |
| C8G G21U C23G U32C G35U | 0.01 |
| C8G G22A C23A U38A | 0.02 |
| C8G G22A G35C G44U | 0.01 |
| C8G G22C C45G | 0.02 |
| C8G G22U G29U | 0.12 |
| C8G G27A U28A G29U G36U G40U | 0.01 |
| C8G G27U G29C | 0.05 |
